# Test results: PubChem BioAssay AID504466 (National Center for Advancing Translational Sciences (NCATS), 2011)
# Among all 330,000 compounds or so, about 4,200 (1.3%) were called active. The inconclusive results got no clear call from the source; some entries with a clear call stand among them for comparison. Calls follow the shape of the dose curve; as a rule, active = well fitted activation curve with a large enough effect; inconclusive = small, poorly fitted or top-dose-only effect; inactive = no such curve, though single readings can be large or run the other way. A potency beside an inconclusive call is a rough fit, not a confirmed value.
# Assay: qHTS screen for small molecules that induce genotoxicity in human embryonic kidney (HEK293T) cells expressing luciferase-tagged ELG1; also: nearly all actives have a fitted effect of over 60% in size
# Conditions: HEK293T ELG1-luciferase reporter, luminescence, 16 h; series mostly up to 46 µM
# In short: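 Luminescence read-out: rising ELG1-luciferase signal, reflecting elevated ELG1 protein under genetic stress, flags genotoxic compounds. Cells were treated for 16 hr at 37 °C before ONE-Glo detection.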
# Potency is read from the fitted curve at half-maximal effect; tags tell the direction and shape of the fitted curve.
row,SMILES,Potency
1,Cc1ccc(OC(=O)N2CCOCC2)cc1,"inconclusive: 14.6 µM [activator, partial curve, poor fit]"
2,COC(=O)CNC(=O)COC(=O)/C=C/c1ccccc1[N+](=O)[O-],inactive
3,CCc1nonc1NC(=O)c1oc2ccc(Br)cc2c1C,inactive
4,CCc1c(C)[nH]c(C(=O)OCc2ccccc2)c1C,"inconclusive: 18.3 µM [activator, single point]"
5,CC1CCN(S(=O)(=O)c2cc3c4c(c2)CCN4C(=O)CC3)CC1,"inconclusive: 23.1 µM [activator, single point]"
6,CC(CC(=O)Nc1ccc2c(c1)OCCO2)c1ccccc1 (stereo unspecified),"inconclusive: 14.6 µM [activator, partial curve]"
7,COc1ccc(-c2noc(CCCOc3ccc(Cl)cc3Cl)n2)cc1,"inconclusive: 7.31 µM [activator, partial curve, poor fit]"
8,COc1ccccc1Nc1nnc(SCC(=O)c2cc(C)n(CC3CCCO3)c2C)s1 (stereo unspecified),inactive
9,O=c1[nH]c2ccccc2nc1/C=C(\O)c1cccs1,"inconclusive: 9.2 µM [activator, partial curve, poor fit]"
10,Fc1ccc(N/N=C2/CC(c3ccccc3)Oc3ccccc32)c(F)c1 (stereo unspecified),"inconclusive: 16.4 µM [activator, partial curve, poor fit]"
11,COc1ccc(-c2nnc(N(C)C(=O)c3ccno3)s2)cc1,"inconclusive: 16.4 µM [activator, partial curve]"
12,COc1ccccc1C(=O)Nc1nnc(-c2ccccc2)s1,"inconclusive: 16.4 µM [activator, partial curve, poor fit]"
13,Cc1ccc(C)c(C(=O)COc2ncnc3ccccc23)c1,inactive
14,CC1CCN(C(=O)CN(c2ccc3c(c2)OCCO3)S(=O)(=O)c2ccccc2)CC1,inactive
15,O=C(NNC(=O)c1cccc(-n2cccc2)c1)c1ccccc1,"inconclusive: 23.1 µM [activator, partial curve, poor fit]"
16,CC(C)Oc1ccc(C2CC(=O)N(c3ccccc3)C2=O)cc1 (stereo unspecified),inactive
17,COC(=O)CC(NC(=O)Nc1ccccc1F)c1ccc2c(c1)OCO2 (stereo unspecified),inactive
18,CS(=O)(=O)c1ccc(C(=O)OCc2nnc(-c3ccc(Cl)cc3)o2)cc1[N+](=O)[O-],"inconclusive: 18.3 µM [activator, single point]"
19,O=C(NCCn1ccc2ccccc21)c1ccc2c(c1)OCO2,active: 2.31 µM
20,C=CCn1c(C)cc(C(=O)COC(=O)c2n[nH]c(=O)c3ccccc23)c1C,"inconclusive: 2.31 µM [activator, full curve]"
21,Cc1ccc(C(=O)N2CCN(c3ccc(NC(=O)c4ccc(Br)o4)cc3)CC2)cc1,inactive
22,C=CCOc1ccc(C2NC(=S)NC3=C2CCc2ccccc23)cc1 (stereo unspecified),inactive
23,Cc1[nH]n(-c2ccc(Br)cc2)c(=O)c1/C=N/NC(=O)c1ccccc1,"inconclusive: 29.1 µM [activator, single point]"
24,COc1ccc(OC)c2[nH]c(=O)c(CCNC(=O)c3cc4ccccc4o3)cc12,inactive
25,Cc1cccc(NC(=O)Nc2cc(C)cc(C)n2)c1,"inconclusive: 4.11 µM [activator, full curve]"
26,Cc1cc(C)nc(NC(=O)Nc2ccc3c(c2)OCO3)c1,"inconclusive: 2.91 µM [activator, full curve]"

row,SMILES,Potency
1,Nc1c(C(=O)N2CCCCC2)sc2nc3c(cc12)CCCC3,active: 6.51 µM
2,CCN1CC(O)=C(c2nc3ccccc3s2)C1=N,"inconclusive: 20.6 µM [activator, partial curve, poor fit]"
3,c1cncc(-c2noc(-c3ccc4ccccc4c3)n2)c1,active: 2.06 µM
4,O=c1oc2cc(Br)ccc2n1CSC1=NCCS1,inactive
5,CCN1/C(=C/C=C/C=C/C=C/c2sc3ccccc3[n+]2CC)Sc2ccccc21,inactive
6,C(=C\c1nnc(-c2cccs2)o1)/c1ccccc1,"inconclusive: 10.3 µM [activator, partial curve]"
7,O=C(Nc1ncc(Cl)cc1Cl)c1c(F)cccc1Cl,inactive
8,CCOC(=O)c1ccc(N/C=C/C(=O)C(C)(C)C)cc1,"inconclusive: 5.17 µM [activator, partial curve]"
9,Cc1ccc(N/N=C(\Cc2nc3ccccc3[nH]2)c2ccccc2)cc1,"inconclusive: 29.1 µM [activator, single point]"
10,O=C(COC(=O)Cc1c(Cl)cccc1Cl)NC1CCCC1,inactive
11,O=C(COC(=O)c1nc(Cl)ccc1Cl)NC(=O)c1ccccc1,inactive
12,CC(C)(C)NC(=O)CSc1nc2ccccc2c(=O)[nH]1,"inconclusive: 16.4 µM [activator, partial curve, poor fit]"
13,CC(=O)Nc1sc(N/N=C/c2ccccc2)nc1-c1ccc(C)cc1,inactive
14,COc1ccc(OC)c(NC(=O)NCc2ccc(F)cc2)c1,inactive
15,C/C=C/CSc1nc2c(c(=O)[nH]c(=O)n2C)n1Cc1ccc(C)cc1,active: 20.6 µM
16,CCOc1ccc(-c2nc(=S)[nH][nH]2)cc1,"inconclusive: 13 µM [activator, partial curve, poor fit]"
17,CSc1nc(Cl)cc(Nc2ccc(O)cc2)n1,"inconclusive: 18.3 µM [activator, single point]"
18,COc1ccc(/C=C/C(=O)OCC(=O)Nc2ccc3c(c2)OCO3)cc1,inactive
19,O=C(CCCc1ccccc1)Nc1ccccn1,"inconclusive: 16.4 µM [activator, partial curve, poor fit]"
20,CC(NC(=O)c1cc(COc2cccc(C(F)(F)F)c2)on1)c1nccs1 (stereo unspecified),"inconclusive: 9.2 µM [activator, partial curve]"
21,COc1ccc(Nc2ccc([N+](=O)[O-])cn2)cc1,inactive
22,CC(C)N=C1NN=C(c2ccc(Cl)c(Cl)c2)CS1,active: 2.06 µM
23,Cc1ccc(NC(=O)c2ccc3c(c2)N(CC(=O)N2CCCCC2)C(=O)C(C)(C)O3)cc1,inactive
24,CCOc1c(C)cnc2c1c(=O)n(Cc1ccccc1F)c(=O)n2C,inactive
25,c1ccc(CN=C2Nc3ccccc3CS2)nc1,"inconclusive: 2.31 µM [activator, full curve, poor fit]"
